Paper PMC4336329 (PLoS ONE, 2015)
Screen size: about 310,000 compounds; about 14,000 (4.5%) showed an effect of 50% or more. The effect is printed as a negative number. The list shows a part of the results.

Each compound was assayed against human ether-à-go-go-related gene (hERG) potassium channel (human, UniProt Q12809) (assay: primary screen, population patch clamp on CHO cells stably expressing hERG).
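Also: peak tail current of the secondary pulse compared with the same well before compound.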

Chain of human ether-à-go-go-related gene (hERG) potassium channel (Q12809 whole entry, looked up): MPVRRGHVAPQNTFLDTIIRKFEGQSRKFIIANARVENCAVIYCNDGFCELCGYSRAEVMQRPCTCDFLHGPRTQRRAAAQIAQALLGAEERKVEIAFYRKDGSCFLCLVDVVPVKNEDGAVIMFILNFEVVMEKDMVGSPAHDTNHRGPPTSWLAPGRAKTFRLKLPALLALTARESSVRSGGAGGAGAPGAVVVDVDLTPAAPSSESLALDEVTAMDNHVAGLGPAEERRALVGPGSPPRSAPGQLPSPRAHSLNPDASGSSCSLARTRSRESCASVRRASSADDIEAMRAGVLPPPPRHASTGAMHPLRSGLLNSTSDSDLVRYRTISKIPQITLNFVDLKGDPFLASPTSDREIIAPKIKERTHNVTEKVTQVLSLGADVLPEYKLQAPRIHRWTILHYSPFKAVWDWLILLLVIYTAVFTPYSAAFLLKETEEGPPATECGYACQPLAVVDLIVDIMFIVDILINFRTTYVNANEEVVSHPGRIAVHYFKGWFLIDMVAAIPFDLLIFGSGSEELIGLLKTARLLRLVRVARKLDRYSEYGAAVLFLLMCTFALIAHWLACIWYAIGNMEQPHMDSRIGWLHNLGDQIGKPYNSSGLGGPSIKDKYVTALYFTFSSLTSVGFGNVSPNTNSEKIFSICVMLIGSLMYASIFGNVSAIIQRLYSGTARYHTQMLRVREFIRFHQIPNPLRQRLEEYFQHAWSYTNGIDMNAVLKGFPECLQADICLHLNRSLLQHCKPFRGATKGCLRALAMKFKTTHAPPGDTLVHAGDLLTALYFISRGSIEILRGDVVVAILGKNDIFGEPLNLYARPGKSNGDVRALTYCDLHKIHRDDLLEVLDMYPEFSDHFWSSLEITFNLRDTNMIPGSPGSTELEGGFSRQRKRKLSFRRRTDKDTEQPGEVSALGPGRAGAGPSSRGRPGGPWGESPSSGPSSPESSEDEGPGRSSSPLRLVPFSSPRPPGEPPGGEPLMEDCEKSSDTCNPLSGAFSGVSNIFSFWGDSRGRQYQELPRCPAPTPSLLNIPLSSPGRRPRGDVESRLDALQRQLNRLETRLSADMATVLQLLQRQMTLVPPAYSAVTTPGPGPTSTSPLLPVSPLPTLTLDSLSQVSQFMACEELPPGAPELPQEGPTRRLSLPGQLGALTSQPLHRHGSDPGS

Structure (SMILES)	hERG current change (%, negative = inhibition) at 10uM [%]
CC1CCCCC12NC(=O)N(CC(=O)Nc1ccc3c(c1)OCCCO3)C2=O (stereo not shown)	-9.5
O=C(/C=C/c1c(F)cccc1Cl)N1CCc2ccccc2C1	4.99
Cc1nn(-c2ccccc2)c(C)c1NC(=O)COC(=O)Cc1cccc(C(F)(F)F)c1	-6.53
Cc1[nH]n(C2=NCCS2)c(=O)c1N=Nc1ccccc1	-27.8
COc1ccc([N+](=O)[O-])cc1NC(=O)c1ccc(CN(c2ccc(C)c(C)c2)S(C)(=O)=O)cc1	10.7
Cc1nn(Cc2ccccc2)c(C)c1NC(=O)CSc1nnc(-c2cc(Cl)ccc2O)n1C	-12.4
CC(=O)Nc1ccc(NC(=O)C2CC(=O)Nc3nc4ccccc4n32)cc1 (stereo not shown)	24.6
C=CCn1c(COc2ccc(Cl)cc2)nnc1SCC(=O)N/N=C/c1ccccc1	-7.71
Cc1cc(C)cc(NC(=O)C(=O)NCCc2c[nH]c3ccccc23)c1	14.9
Cc1cc(OCC(=O)Nc2ccc(CN3CCOCC3)cc2)c2c(C)c(C)c(=O)oc2c1	16
COc1ccc(Cl)cc1NS(=O)(=O)c1cccc(C(=O)N2CC(C)OC(C)C2)c1 (stereo not shown)	-16.3
COc1cccc(NC(=O)CN(C)C(=O)CCCc2nc3ccccc3s2)c1	-24.1
Cc1ccc(NC(=O)c2cc(-c3ccccc3)nn2-c2ccccc2)cc1	14.6
Cc1cc2ccccc2n1CCNC(=O)c1ccc(S(=O)(=O)N2CCCCC2)cc1	9.14
CC(C)(C)c1nc2ccccc2c(=O)n1N1C(=O)c2ccccc2C1=O	8.07
Cc1ccc(SCCC(=O)Nc2cccc(N(C)S(C)(=O)=O)c2)cc1	-16.3
COc1ccc(CCNC(=O)Cc2c(Cl)cccc2Cl)cc1	45
CCc1nn(CC(=O)N2CCN(CC)CC2)c(=O)c2cc3sccc3n12	-0.134
CCC[C@@H]1CCCO[C@@](C(=O)NCc2ccccn2)(C(F)(F)F)C1	-1.97
COc1cc(C(=O)NCc2ccc(OCCN(C)C)cc2)cc(OC)c1OC.Cl	8.72
O=C(NC(=S)Nc1c(Cl)ccc2nsnc12)c1ccccc1F	21.2
Cl.OC(c1ccccc1)C(CN1CCOCC1)c1ccccc1 (stereo not shown)	-6.03

Structure (SMILES)	hERG current change (%, negative = inhibition) at 10uM [%]
Cl.Fc1ccccc1C(c1nnnn1C1CCCC1)N1CCN(Cc2ccccc2)CC1 (stereo not shown)	-18.9
CCn1ncc(S(=O)(=O)Nc2cccnc2)c1C	5.02
COc1ccc(Cl)cc1NC(=O)Cn1nc(-c2ccc(C)cc2)n(C)c1=S	1.98
COc1ccc(-c2cn[nH]c2-c2ccc(OC)cc2O)cc1	-8
CCn1cc(CN2CCCC(CNS(=O)(=O)c3cccc4cccnc34)C2)cn1 (stereo not shown)	17.8
Cc1cc(=O)oc2cc(OCCC[n+]3ccccc3)ccc12.[Br-]	1.4
C[C@H](NC(=O)OC(C)(C)C)c1nnc(SCC(=O)Nc2ccc(Br)cc2)o1	-11.2
O=C(O)CCS(=O)(=O)Cc1ccccc1F	17.7
Cc1c(N=Cc2ccc(O)c(Br)c2)cccc1[N+](=O)[O-]	0.627
Cc1nn(CC(=O)NCCN2CCCCC2C)c(=O)c2cc(-c3ccccc3)nn12 (stereo not shown)	-48.4
N#C/C(=C(/O)COC(=O)c1ccccc1O)c1nc2ccccc2s1	15
Cc1nc2ccccc2n1CCN1CCOCC1.Cl	23.3
CCOc1ccc(N=Nc2ccc(O)c3ncccc23)cc1	18
Cc1cc(C(F)F)n2nc(C(=O)Nc3sc4c(c3C(N)=O)CCC4)nc2n1	-60.9
CC(NC(=O)CSc1nc2ccc(N)cc2s1)c1ccccc1 (stereo not shown)	32
O=C1OCC/C1=C\c1ccccc1	1.96
O=C(COCc1cc(-c2ccc3c(c2)OCO3)on1)N1CCN(c2ccc(F)cc2)CC1	-3.9
Cc1c(NC(=O)C(C)n2cc([N+](=O)[O-])cn2)c(=O)n(-c2ccccc2)n1C (stereo not shown)	19.4
O=C(Nc1ccccc1Cl)ON=C1c2ccccc2-c2ccccc21	-4.49
O=C(Cn1c(=O)oc2ccccc21)NCc1ccco1	21.4
Cc1cccc(OCC(=O)Nc2ccc3c(c2)nc2n3CCOC2)c1	-32.6
